Laboratory results published in PubChem BioAssay AID686970 (National Center for Advancing Translational Sciences (NCATS), 2013).
The campaign covered roughly 360,000 compounds. About 6,000 (1.7%) were called active. The shares of active, inactive and inconclusive entries below differ from those in the screen. Calls follow the shape of the dose curve; as a rule, active = well fitted cell-killing curve with a large enough effect; inconclusive = small, poorly fitted or top-dose-only effect, or effect the other way; inactive = flat fitted curve, though single readings scatter. No potency is given beside an inconclusive call; the fits are too rough.

Assay: qHTS for induction of synthetic lethality in tumor cells producing 2HG: qHTS for the HT-1080-NT fibrosarcoma cell line;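 also: NT is the 2HG producing partner of a matched IDH1 knockdown line; nearly all actives have a fitted effect of over 55% in size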;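 as to activity, negative = less viability: 0% = DMSO-treated cells and -100% = media-only wells without cells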
Conditions: HT-1080-NT fibrosarcoma viability, CellTiter-Glo ATP luminescence, 48 h; activity, negative = less viability: at 46.1 µM (top of the series) unless noted
In short: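 Fibrosarcoma NT cells, 750 per well in 5% FBS RPMI, were exposed to compound for 48 hours. Viability: CellTiter-Glo luminescence.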
Potency is read from the fitted curve at half-maximal effect; tags tell the direction and shape of the fitted curve.

Compound	Potency	activity, negative = less viability
O=C(CC1CCCCC1)NCc1nc(-c2ccccc2)no1	inconclusive [rising, single point]	–
COc1ccc(N2CCN(C(=O)c3cn(C4CCCC4)c(=O)c4c3c3ccccc3n4C)CC2)cc1	inactive	–
Cc1ccc2[nH]cc(CCNC(=O)CN3C(=O)c4ccccc4C3=O)c2c1	inactive	–
Cc1cccc([C@@H]2[C@@H]3C(=O)N(Cc4ccccc4)C(=O)[C@@H]3[C@]3(C)C(=O)N(c4ccc(C(F)(F)F)cc4)C(=O)N23)c1	inconclusive [cytotoxic, partial curve]	–
COc1cc(NC(=O)CSc2ccccc2)c(C(=O)O)cc1OC	inactive	–
CCc1ccc(NC(=O)COc2ccc(/C=C(/C#N)c3nc4ccccc4[nH]3)cc2OC)cc1	inconclusive [cytotoxic, full curve]	–
COC(=O)[C@]12CCCCC=C1N(CCC1=CCCCC1)C(=O)[C@H](CC(=O)N1CCC(c3ccccc3)CC1)C2	inconclusive [cytotoxic, single point]	–
CCOc1cccc2sc(Nc3nc4ccc(NC(C)=O)cc4s3)nc12	inconclusive [cytotoxic, partial curve, poor fit]	–
Clc1ccc(CN2CCN(c3ncccn3)CC2)cc1	inactive	–
CC(=O)Nc1cccc(-c2ccnc3c2CC(C(=O)Nc2ccc(F)c(Cl)c2)O3)c1 (centres undefined)	inconclusive [cytotoxic, single point]	–
FC(F)(F)c1ccccc1NC(=S)N/N=C1\CC2CC=CC12 (centres undefined)	–	inconclusive: -62.5%
CC1=CC(C)(C)NC(=S)N1c1ccc(C)cc1	inconclusive [cytotoxic, single point]	–
Cn1c(/C(C#N)=C(\O)c2cccc(F)c2)nc2ccccc21	inconclusive [cytotoxic, single point]	–
COc1ccc(-c2cc(NC=O)c3ncc(-c4cccc(OC)c4)n3c2)cc1	inconclusive [cytotoxic, single point]	–
CCCc1nc2cc(C)c(Br)c(C)n2c1Cc1ccsc1	inconclusive [cytotoxic, single point]	–
Cc1ccc(SCC(=O)c2ccc(CC(=O)O)s2)cc1	inactive	–
Cc1ccccc1NC(=S)NNC(=O)c1csc2c1CCC(C)C2 (centres undefined)	inconclusive [cytotoxic, partial curve]	–
O=C(CCN1C(=O)CC1c1ccco1)N1CCOCC1 (centres undefined)	inconclusive [rising, single point]	–
COc1ccc(NC(=O)C2CCN(S(=O)(=O)c3ccc(Cl)c(C(F)(F)F)c3)CC2)cn1	inactive	–
CCCOP(=O)(c1ccccc1)c1ccccc1	inconclusive [cytotoxic, single point]	–
Cc1cc(OCC(=O)N2CCc3ccccc3C2)c2c(-c3ccccc3)cc(=O)oc2c1	inconclusive [cytotoxic, single point]	–
Cc1nn(CC(=O)NCCN2CCOCC2)c(=O)c2cc3sccc3n12	inactive	–
CC(C)Cn1c(-c2ccco2)n[nH]c1=S	inconclusive [cytotoxic, single point]	–

Compound	Potency	activity, negative = less viability
CCCC(=O)NC(c1ccccc1OC)c1ccc2cccnc2c1O (centres undefined)	inconclusive [cytotoxic, full curve]	–
O=c1nc(N/N=C/c2ccccn2)cn[nH]1	–	inconclusive: -31.5% [cytotoxic]
NC[C@@H]1O[C@H](C23CC4CC(CC(C4)C2)C3)Cc2c1ccc(O)c2O	inconclusive [cytotoxic, full curve, poor fit]	–
O=C(c1[nH]c(C(F)(F)F)nc1-c1ccccc1)N1CCc2c([nH]c3ccccc23)C1	inconclusive [cytotoxic, full curve]	–
CS(=O)(=O)Nc1nnc(SCC(=O)N(c2ccccc2)c2ccccc2)s1	inactive	–
Cc1ccc2nc(C3CCCCC3)[nH]c2c1	inactive	–
CC1CCN(C(=O)Cn2c(SCC(=O)Nc3nccs3)nc3ccccc32)CC1	inactive	–
O=C1N[C@@H](Cc2ccccc2)C(=O)N2[C@H]1C[C@]1(Br)c3ccccc3N(S(=O)(=O)c3ccc(F)cc3)[C@H]21	inactive	–
COc1ccc(NCC(=O)Nc2ccc(Br)cc2F)c(OC)c1	inconclusive [cytotoxic, single point]	–
COc1ccc(NC(=O)C2Cc3c(-c4ccc(Cl)cc4)ccnc3O2)cn1 (centres undefined)	inconclusive [cytotoxic, single point]	–
O=C(Oc1cccc2cccnc12)c1cccc(N2C(=O)C3C4CCC(C4)C3C2=O)c1 (centres undefined)	inconclusive [cytotoxic, single point]	–
O=C(NC1CCCCC1)C(c1cccnc1)N(C(=O)CCl)c1cccc(Cl)c1 (centres undefined)	active: 5.17 µM	–
CSc1cccc(-n2cc(-c3ccc4c(c3)OCO4)[nH]c2=O)c1	inconclusive [cytotoxic, single point]	–
CC(C)CCNC(=O)C1(C)CCN1Cc1ccc2ccccc2c1 (centres undefined)	inconclusive [cytotoxic, single point]	–
Cc1c(Cc2ccccc2)sc(NC(=O)Cc2ccccc2)c1C(N)=O	inconclusive [cytotoxic, single point]	–
COc1ccccc1NC(=O)c1ccc2c(c1)CCN2S(C)(=O)=O	inactive	–
Cc1cc(O)c(NC(=S)NC(=O)c2ccc(-c3ccc(Cl)cc3)o2)cc1C	inconclusive [cytotoxic, single point]	–
COC(=O)c1ccc(CC2(C)C(=O)Nc3ccc(-c4cccc(C(F)(F)F)c4)cc32)o1 (centres undefined)	inconclusive [cytotoxic, single point]	–
Cc1ccc(NC(=O)NNC(=O)COc2ccc(Cl)cc2)cc1	inactive	–
CN=c1sc2ccccc2n1CC(O)COc1ccccc1 (centres undefined)	inactive	–
C/C(=N\NC(=O)c1ccc(F)cc1)c1ccccn1	inconclusive [cytotoxic, partial curve]	–
CC(C)(C)/C(O)=C/c1nc2cc(Cl)ccc2oc1=O	–	inconclusive: -35.1% [cytotoxic]
O=C(O)c1cccc(-c2ccc(/C=c3/sc4nc5ccccc5n4c3=O)o2)c1	inconclusive [cytotoxic, single point]	–

Compound	Potency	activity, negative = less viability
CC1(C(=O)Nc2cccc3c2CCCC3)CCN1C(=O)c1cccc(F)c1 (centres undefined)	inactive	–
COc1ccc(C)cc1C1=CC(=O)C[C@H](c2ccc(F)cc2)C1	inconclusive [cytotoxic, single point]	–
CC(C)(C)c1ccc(O)c(O)c1	inconclusive [cytotoxic, partial curve]	–
O=S(=O)(Nc1nc2ccccc2nc1Nc1cccc(S(=O)(=O)N2CCCCC2)c1)c1ccccc1	active: 6.51 µM	–
Cc1cc(C(=O)NNC(=O)CN2C(=O)NC(C)(c3ccccc3)C2=O)c(C)o1 (centres undefined)	inactive	–
COCCNC(=O)/C(C#N)=C/c1c(N2CCCCCC2)nc2ccccn2c1=O	inconclusive [rising, single point]	–
COc1ccc(-c2coc3c(C(=O)NC(C)C)cccc23)c(C)c1	inconclusive [cytotoxic, single point]	–
COc1ccc(NC(=O)Nc2cccs2)cc1Cl	inactive	–
O=C(/C=C/c1ccc(Cl)c([N+](=O)[O-])c1)Nc1ccc(N2CCCC2)cc1	inconclusive [cytotoxic, single point]	–
O=C(CN1C(=O)NC(Cc2c[nH]c3ccccc23)C1=O)Nc1cccc(S(=O)(=O)N2CCCCCC2)c1 (centres undefined)	inconclusive [cytotoxic, single point]	–
Cc1ccc([N+](=O)[O-])cc1NC(=S)NC(=O)C(C)(C)C	inconclusive [cytotoxic, single point]	–
O=C(N/N=C/c1ccc(Cl)cc1)c1cc(-c2cccnc2)nc2ccccc12	inconclusive [cytotoxic, partial curve]	–
COCCNC(=O)NC1(C(F)(F)F)Oc2ccc(Cl)cc2O1 (centres undefined)	inconclusive [cytotoxic, partial curve]	–
CCOC(=O)C1(CCOc2ccccc2)CCN(Cc2cccs2)CC1	inconclusive [cytotoxic, single point]	–
Cc1ccc(-c2csc(N)n2)cc1	inactive	–
Cc1ncoc1C(=O)N1CCCC(CCC(=O)NCc2ccc(F)c(F)c2)C1 (centres undefined)	inactive	–
O=C(Nc1cccc(S(=O)(=O)NC2=NCCC2)c1)c1cn(-c2ccccc2)nc1-c1ccc(F)cc1	inconclusive [cytotoxic, partial curve]	–
Cc1nn(C(C)C)c(C)c1CN1CCC(C(=O)Nc2cccc(-c3cccc(F)c3)c2)CC1	active: 14.6 µM	–
COc1ccc2c(c1)OC[C@H]1[C@H]2N2C(=O)c3cc(OC)c(OC)cc3NC(=O)[C@@]2(C)[C@H]1c1ccccc1	inconclusive [cytotoxic, partial curve]	–
Cc1ccc(C)c(NC(=O)c2ccccc2O)c1	inconclusive [cytotoxic, single point]	–
Cn1c(=O)[nH]c(=O)c2[nH]c(N(Cc3ccccc3)Cc3ccccc3)nc21	inconclusive [cytotoxic, single point]	–
Oc1ccc(C[C@H]2CN([C@@H](Cc3ccccc3)CN3CCC[C@@H]3CN3C(=S)NC[C@@H]3Cc3ccccc3)C(=S)N2CC2CCCCC2)cc1	active: 23.1 µM	–
O=C(CCl)Nc1ccccc1C(=O)c1ccccc1	inconclusive [cytotoxic, single point]	–
